Assay results: publication PMC4336329 (PLoS ONE, 2015)
Hit rate of the full screen: of about 310,000 compounds, about 14,000 (4.5%) showed an effect of 50% or more. The effect is printed as a negative number. Some of the results follow.

Each molecule was assayed against human ether-à-go-go-related gene (hERG) potassium channel (human, UniProt Q12809) (assay: primary screen, population patch clamp on CHO cells stably expressing hERG).
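Further: peak tail current of the secondary pulse compared with the same well before compound.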

Sequence of human ether-à-go-go-related gene (hERG) potassium channel (Q12809 whole entry, looked up): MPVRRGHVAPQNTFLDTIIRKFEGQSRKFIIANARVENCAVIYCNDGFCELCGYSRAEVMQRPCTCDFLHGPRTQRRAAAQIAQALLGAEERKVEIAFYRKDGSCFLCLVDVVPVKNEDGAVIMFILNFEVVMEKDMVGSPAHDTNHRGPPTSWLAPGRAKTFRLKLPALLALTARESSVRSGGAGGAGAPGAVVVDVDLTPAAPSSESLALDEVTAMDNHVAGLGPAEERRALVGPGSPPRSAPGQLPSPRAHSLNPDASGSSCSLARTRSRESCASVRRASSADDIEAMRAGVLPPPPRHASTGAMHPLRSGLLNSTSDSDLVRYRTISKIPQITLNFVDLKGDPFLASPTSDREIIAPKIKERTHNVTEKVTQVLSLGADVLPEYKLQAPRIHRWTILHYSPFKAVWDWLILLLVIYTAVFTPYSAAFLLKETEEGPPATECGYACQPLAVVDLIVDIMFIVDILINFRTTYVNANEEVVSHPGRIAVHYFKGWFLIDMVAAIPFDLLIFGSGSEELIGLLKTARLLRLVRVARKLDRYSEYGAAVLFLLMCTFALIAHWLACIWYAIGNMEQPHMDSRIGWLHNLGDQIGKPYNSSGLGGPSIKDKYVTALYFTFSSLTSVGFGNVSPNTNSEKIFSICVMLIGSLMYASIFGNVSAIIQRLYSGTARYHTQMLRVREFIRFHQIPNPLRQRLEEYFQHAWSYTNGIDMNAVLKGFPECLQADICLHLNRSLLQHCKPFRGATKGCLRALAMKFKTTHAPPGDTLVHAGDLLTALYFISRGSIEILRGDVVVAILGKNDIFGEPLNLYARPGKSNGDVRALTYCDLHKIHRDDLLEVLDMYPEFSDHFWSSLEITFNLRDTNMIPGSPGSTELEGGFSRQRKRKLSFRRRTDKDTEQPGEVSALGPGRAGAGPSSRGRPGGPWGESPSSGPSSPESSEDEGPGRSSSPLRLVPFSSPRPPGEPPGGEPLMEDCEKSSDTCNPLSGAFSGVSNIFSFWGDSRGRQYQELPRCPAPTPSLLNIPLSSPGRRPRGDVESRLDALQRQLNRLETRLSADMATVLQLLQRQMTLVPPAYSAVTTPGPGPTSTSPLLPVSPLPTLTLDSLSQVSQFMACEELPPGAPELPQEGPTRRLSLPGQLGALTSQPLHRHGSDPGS

| SMILES | hERG current change (%, negative = inhibition) at 10uM [%] |
| --- | --- |
| Cc1cc(C(=O)CN2CCCC(C)C2)c(C)n1-c1ccc(F)cc1 (stereo not shown) | 1.6 |
| CC(C)Cn1c2c(c(=O)[nH]c1=O)C(NS(=O)(=O)c1ccc(Cl)cc1)(C(F)(F)F)C(=O)N2 (stereo not shown) | 34.2 |
| COc1ccccc1C(=O)Nc1c2c(nn1-c1ccc([N+](=O)[O-])cc1)CS(=O)(=O)C2 | 11.7 |
| CN(C)S(=O)(=O)c1ccc(C(=O)N2CCN(S(=O)(=O)c3cccs3)CC2)cc1 | 12.6 |
| Cc1ccc(-c2csc3ncnc(-n4nnc5ccccc54)c23)cc1C | -8.24 |
| Cc1ccc(Cl)cc1N1CCN(Cc2nnnn2Cc2ccco2)CC1 | -37.9 |
| CC(C)CCN1NC2(CCC(C)CC2)NC1=S (stereo not shown) | 0.837 |
| CC(=O)OCC(=O)Nc1c(C)cc(C)cc1C | -0.754 |
| CC(=O)N1CCC(O)(c2ccc3c(c2)OCO3)CC1 | 16.7 |
| O=C(CC1(O)C(=O)N(Cc2ccccc2Cl)c2ccccc21)c1ccco1 (stereo not shown) | -40.4 |
| O=C1CCCC(=O)C1C1c2ccccc2CCN1C(=O)CCl (stereo not shown) | 15.1 |
| CCCCc1ccc(-c2nc(N)n[nH]2)cc1 | 6.27 |
| O=C(CO/N=C/c1cccc([N+](=O)[O-])c1)NC1CCCCCC1 | -20.7 |
| CN(C(=O)C1CCCCC1)C1CCS(=O)(=O)C1 (stereo not shown) | -15.3 |
| Cc1nnc(SCc2cc([N+](=O)[O-])cc3c2OCOC3)[nH]c1=O | 3.87 |
| COc1ccc(CC(=O)NC(C)C2COc3ccccc3O2)cc1OC (stereo not shown) | -0.81 |
| CCC(C)NC(=O)c1cn(CC)c2cc(N3CCN(C(=O)c4ccco4)CC3)c(F)cc2c1=O (stereo not shown) | -55.2 |
| CCN(CCO)C(=O)c1ccc2nc(Cc3ccc(OC)cc3)oc2c1 | 8.84 |
| CC(=O)Oc1ccc(CCC(C)OC(C)=O)cc1 (stereo not shown) | 3.79 |
| CCc1nnc(NC(=O)C2CCCN(c3nc(C)cc(C)n3)C2)s1 (stereo not shown) | -23.3 |
| CC(=O)N1c2ccccc2C(=O)C1N(C)c1ccc(C)cc1 (stereo not shown) | 1.21 |
| CCCCn1c(N)c(N(CCOC)C(=O)COC(=O)COc2cc(C)ccc2Cl)c(=O)[nH]c1=O | 24.3 |
| Cc1ccc(S(=O)(=O)N2CCC(C(=O)N3CCC[C@H]3C(=O)NCC(C)C)CC2)cc1 | 13.8 |
| COc1c(S(=O)(=O)N2CCN(C)CC2)ccc(Cl)c1Cl | 13.7 |
| COc1ccc(C2CC(c3ccc(F)cc3)Nc3nc(N)nn32)cc1OC (stereo not shown) | -8.42 |
